Experimental data as given in the supplement of paper PMC4894684.
Where “and” joins values, the source holds several entries; their conditions need not be identical. Identical values can stand only once. Counter-ions that a name gives are not always drawn. ± gives the standard deviation of the averaged measurements. The campaign covered roughly 1,000 compounds. About 15 (2%) showed an effect of 50% or more. The list shows a part of the results.

System: HFF
Experiment: uninfected host cell viability relative to vehicle control; higher = less host cell toxicity
Settings: 5 µM; 72 h; oxygen 21 %
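Note: confluent HFF monolayers, run in parallel with the Toxoplasma growth screen as a host toxicity counterscreen.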

| SMILES | uninfected host cell viability |
| --- | --- |
| COc1ccc2cc([C@H](C)C(=O)O)ccc2c1 [Naproxen sodium] | 97.1 ± 3.6% |
| COC(=O)C[C@](O)(CCCC(C)(C)O)C(=O)O[C@@H]1C(OC)=C[C@]23CCCN2CCc2cc4c(cc2[C@H]13)OCO4 [Homoharringtonine] | 28.6 ± 2.8% |
| NCCCCCc1c[nH]cn1 [Impentamine dihydrobromide] | 89.6 ± 3% |
| CC(=O)O[C@H]1C(=O)[C@@]2(C)[C@H]([C@H](OC(=O)c3ccccc3)[C@]3(O)C[C@H](OC(=O)[C@H](O)[C@@H](NC(=O)c4ccccc4)c4ccccc4)C(C)=C1C3(C)C)[C@]1(OC(C)=O)CO[C@@H]1C[C@@H]2O [Taxol] | 78.5 ± 1.7% |
| CCCCC[C@H](O)/C=C/[C@H]1[C@H](O)CC(=O)[C@@H]1C/C=C\CCCC(=O)O [Prostaglandin E2] | 95.2 ± 2.4% |
| CCCCCCCCCCCCCCCCn1cc[n+](Cc2ccccc2)c1C | 32 ± 6.6% |
| N[C@@H](Cn1ccc(=O)n(Cc2ccccc2C(=O)O)c1=O)C(=O)O | 84.8% and 85.7% |
| CCCn1c(=O)c2[nH]c(C3CCCC3)nc2n(CCC)c1=O | 96.9 ± 2.9% |
| Cc1cc(C(=O)O)sc1C(N)C(=O)O (stereo not drawn) | 86.2 ± 2.2% |
| CN1C(=O)C(Cc2c[nH]c3ccccc23)NC1=S (stereo not drawn) [Necrostatin-1] | 83.5 ± 2.1% |
| Cn1cc(/C=C2\C(=O)Nc3cccnc32)c2ccccc21 | 67.8 ± 1.2% |
| CC(C)(C)c1ccc(S(=O)(=O)/C=C/C#N)cc1 | 94.5 ± 1.1% |
| CN(C)C(=O)C(=O)c1cn(C)c2cc(Cl)c(C(=O)N3CCC(Cc4ccc(F)cc4)CC3)cc12 | 88.4 ± 2.3% |
| O=C(O)c1cc(=O)c2c(Cl)cc(Cl)cc2[nH]1 [5,7-Dichlorokynurenic acid] | 92.9 ± 1.2% |
| Clc1ccccc1CNCC1CCC(CNCc2ccccc2Cl)CC1 (stereo not drawn) | 83.3 ± 1.1% |
| NC(=O)c1ccc(-c2nc(-c3ccccn3)c(-c3ccc4c(c3)OCO4)[nH]2)cc1 | 92.28 ± 0.26% |
| O=C(NCCCCN1CCN(c2cccc(Cl)c2Cl)CC1)c1ccc2c(c1)Cc1ccccc1-2 | 88.9 ± 4% |
| CN/C(=N\CCSCc1nc[nH]c1C)NC#N [Cimetidine] | 85.6 ± 1.4% |
| N#C/C(=C\c1ccc(O)c(O)c1)C(=O)NCCCc1ccccc1 | 79.3 ± 3.5% |
| CC1CCN=C(N)S1 (stereo not drawn) [AMT hydrochloride] | 97.7 ± 5.2% |
| CCOC(=O)c1cnc2c(cnn2CC)c1NN=C(C)C [Etazolate hydrochloride] | 87.5 ± 3.7% |
| COc1ccc2[nH]c(-c3ccccc3)c(CCNC(C)=O)c2c1 [2-Phenylmelatonin] | 95.2 ± 4.7% |

| SMILES | uninfected host cell viability |
| --- | --- |
| O=C(NCCCN1CCCCCC1)C(c1ccccc1)C1CCCCC1 (stereo not drawn) | 88.8 ± 4.6% |
| CN1CCC(Nc2ncc3ncnc(Nc4ccc(F)c(Cl)c4)c3n2)CC1 [BIBX 1382 dihydrochloride] | 80.7 ± 2.1% |
| NC(=O)OCC(COC(N)=O)c1ccccc1 [Felbamate] | 96.2 ± 0.84% |
| O=C(O)Cc1cccc(OCCCN(Cc2cccc(C(F)(F)F)c2Cl)CC(c2ccccc2)c2ccccc2)c1 [GW 3965 hydrochloride] | 99.5 ± 3.2% |
| O=c1cc(-c2ccccc2)oc2cc(O)c(O)c(O)c12 [Baicalein] | 69.4 ± 2.4% |
| O=C(O)CCC/C=C\CC1C(O)CC(O)C1/C=C/C(O)COc1cccc(Cl)c1 (racemic) [(±)-Cloprostenol sodium salt] | 90.9 ± 3.5% |
| CC[C@H](C)C(=O)O[C@H]1C[C@@H](C)C=C2C=C[C@H](C)[C@H](CC[C@@H]3C[C@@H](O)CC(=O)O3)[C@H]21 [Lovastatin] | 82.4 ± 4.8% |
| CC1(c2ccccc2)OC(C(=O)O)=CC1=O (stereo not drawn) [Acifran] | 89.6 ± 5.2% |
| COC(=O)C(Cc1ccc(OCCn2c(=O)sc3cc(C(=O)c4ccccc4)ccc32)cc1)C(=O)OC | 89.383 ± 0.088% |
| CC(=O)NCC(=O)N[C@H](CCC(=O)O)C(=O)O [N-Acetylglycyl-D-glutamic acid] | 89.2 ± 4.2% |
| CCCCCCCC/C=C\CCCCCCCC(=O)NCCO [Oleylethanolamide] | 92.81 ± 0.16% |
| CCCCCCC(=O)OC1CC(C)(C)NC(C)(C)C1 [TMPH hydrochloride] | 87.15 ± 0.47% |
| Oc1cc2c(cc1O)CN(C(=S)NCCc1ccc(Cl)cc1)CCC2 [Capsazepine] | 101 ± 2.4% |
| CC1(C)C[C@@H]1C(=O)N/C(=C\CCCCSC[C@H](N)C(=O)O)C(=O)O [Cilastatin sodium] | 91.2 ± 4.5% |
| CNCCCC12CCC(c3ccccc31)c1ccccc12 [Maprotiline hydrochloride] | 79.5 ± 3% |
| O=C1Cc2c([nH]c3ccc(Br)cc23)-c2ccccc2N1 [Kenpaullone] | 83.7 ± 1.5% |
| COc1ccc2c(c1)c(CC(=O)N1CCOCC1)c(C)n2C(=O)c1ccc(Cl)cc1 | 88.1 ± 3.8% |
| CC(C)(C)n1nc(-c2cccc3ccccc23)c2c(N)ncnc21 [1-Naphthyl PP1] | 83.62 ± 0.48% |
| C=CCNC(=O)c1cc([N+](=O)[O-])cc2c(=O)[nH]c(Nc3ccc(Cl)c(Cl)c3)nc12 | 87.2 ± 3.2% |
| CN(C)CCCSC(=N)N [Dimaprit dihydrochloride] | 95.8 ± 1.1% |
| CC(C)c1ccc2c(c1)CC[C@H]1[C@](C)(CN)CCC[C@]21C [Lylamine hydrochloride] | 87.8 ± 1.4% |
